For the assay, the system named is CT26 tumor cells. The experiment in a line: CT26 tumor growth and survival after vaccination (Example 1). To be noted: CT26-bearing Balb/c mice; sc injections at days 5, 8, 12, 15, 19, 22, 26. On the procedure:
The effectiveness of the ANCER™-designed CT26 vaccine was tested in Balb/c mice. Mice were separated into three groups: 1) PBS control; 2) poly-ICLC (vehicle); 3) ANCER™-selected CT26 Neoantigen Peptides+poly-ICLC. • Group 1: PBS, sc injections at days 5, 8, 12, 15, 19, 22, and 26. • Group 2: poly-ICLC, 50 μg, sc injections at days 5, 8, 12, 15, 19, 22, and 26. • Group 3: 5 μg/ANCER™-selected CT26 Neoantigen Peptide (100 μg total ANCER™-selected CT26 Neoantigen Peptides)+50 μg poly-ICLC, sc injections at days 5, 8, 12, 15, 19, 22, and 26.
All mice (N=10 mice per group) were injected 3*10^5 CT26 tumor cells in 0% Matrigel at day 0. Mice were sacrificed once the tumor volume reached 2,000 mm^3 or at day 45, whichever came first.

Consider poly-ICLC, for which the “tumor burden compared to Group 1 (mice immunized with PBS)” value is reported as “no reduction in tumor burden”.
